The supplement of paper PMC12217912
Some of the results follow. The full chains were built here from the parent and the listed change. Inactive controls read about 0.05.

B1: TEV protease; numbered along this chain (parent)
chain: MGESLFKGPRDYNPISSSICHLTNESDGHTTSLYGIGFGPFIITNKHLFRRNNGTLVVQSLHGVFKVKDTTTLQQHLVDGRDMIIIRMPKDFPPFPQKLKFREPQREERICLVTTNFQTKSMSSMVSDTSCTFPSGDGIFWKHWIQTKDGQCGSPLVSTRDGFIVGIHSASNFTNTNNYFTSVPKNFMELLTNQEAQQWVSGWRLNADSVLWGGHKVFMVKPEEPFQPVKEATQL

Variants of: B1
Experiment: raw area under fraction-flipped curve 0-4 h after induction (AUC4h, not background-subtracted), DNA-recorder readout of cleavage of the substrate (dimensionless); higher = more cleavage of the substrate by the protease variant
Settings: temperature: 34 °C; time window: 0-4 h after rhamnose induction
Method: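 In vivo DNA recorder in E. coli TOP10(DE3) ΔrhaA at 34 °C. Each TEVp single-site mutant (parent TEVp 0) is paired with a single-site variant of the 7-mer TEVs (canonical ENLYFQ|S). The substrate sits between flexible linkers in a Bxb1-sfGFP-TEVs-SsrA fusion, so cleavage stabilises Bxb1 and speeds flipping of a recombination array, read by NGS. The value is the raw area under the fraction-flipped curve over 0-4 h after rhamnose induction (AUC4h), with ≥20 reads per time point. It is not background-subtracted; inactive controls average about 0.047.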
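Also: Bxb1 expression induced with 0.2% (w/v) L-rhamnose at OD600 near 0.5, cultures sampled hourly, flipped fraction per protease–substrate barcode pair counted by paired-end Illumina sequencing.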

Row | Variant | area with substrate ENAYFQS | area with substrate ENDYFQS | area with substrate ENEYFQS | area with substrate ENFYFQS | area with substrate ENGYFQS | area with substrate ENHYFQS | area with substrate ENIYFQS | area with substrate ENKYFQS | area with substrate ENNYFQS | area with substrate ENQYFQS | area with substrate ENSYFQS | area with substrate ENTYFQS | area with substrate ENVYFQS | area with substrate ENMYFQS | area with substrate ENPYFQS | area with substrate ENRYFQS | area with substrate ENWYFQS | area with substrate ENYYFQS | area with substrate ENCYFQS
1 | MGESLFKGPRDYNPISSSICHLTNESDGHTTSLYGIGFGPFIINNKHLFRRNNGTLVVQSLHGVFKVKDTTTLQQHLVDGRDMIIIRMPKDFPPFPQKLKFREPQREERICLVTTNFQTKSMSSMVSDTSCTFPSGDGIFWKHWIQTKDGQCGSPLVSTRDGFIVGIHSASNFTNTNNYFTSVPKNFMELLTNQEAQQWVSGWRLNADSVLWGGHKVFMVKPEEPFQPVKEATQL [T44N] | 0.0396 | 0.0548 | 0.0429 | 0.0536 | 0.0386 | 0.0403 | 0.0521 | 0.0453 | 0.047 | 0.0541 | 0.0449 | 0.0591 | 0.0455 |  |  |  |  |  | 
2 | MGESLFKGPRDYNPISSSICHLTNESDGHTTSLYGIGFGPFIIINKHLFRRNNGTLVVQSLHGVFKVKDTTTLQQHLVDGRDMIIIRMPKDFPPFPQKLKFREPQREERICLVTTNFQTKSMSSMVSDTSCTFPSGDGIFWKHWIQTKDGQCGSPLVSTRDGFIVGIHSASNFTNTNNYFTSVPKNFMELLTNQEAQQWVSGWRLNADSVLWGGHKVFMVKPEEPFQPVKEATQL [T44I] | 0.0579 | 0.059 |  | 0.048 | 0.09 |  |  | 0.0579 | 0.0618 | 0.0477 | 0.049 | 0.0491 | 0.0519 | 0.0559 | 0.0618 |  |  |  | 
3 | MGESLFKGPRDYNPISSSICHLTNESDGHTTSLYGIGFGPFIHTNKHLFRRNNGTLVVQSLHGVFKVKDTTTLQQHLVDGRDMIIIRMPKDFPPFPQKLKFREPQREERICLVTTNFQTKSMSSMVSDTSCTFPSGDGIFWKHWIQTKDGQCGSPLVSTRDGFIVGIHSASNFTNTNNYFTSVPKNFMELLTNQEAQQWVSGWRLNADSVLWGGHKVFMVKPEEPFQPVKEATQL [I43H] | 0.0368 | 0.0435 | 0.0431 |  | 0.0493 | 0.0474 |  |  | 0.0221 | 0.0455 | 0.044 | 0.0409 | 0.0388 | 0.0399 | 0.0404 | 0.0315 | 0.0199 | 0.0484 | 
4 | MGESLFKGPRDYNPISSSICHLTNESDGHTTSLYGIGFGPFIDTNKHLFRRNNGTLVVQSLHGVFKVKDTTTLQQHLVDGRDMIIIRMPKDFPPFPQKLKFREPQREERICLVTTNFQTKSMSSMVSDTSCTFPSGDGIFWKHWIQTKDGQCGSPLVSTRDGFIVGIHSASNFTNTNNYFTSVPKNFMELLTNQEAQQWVSGWRLNADSVLWGGHKVFMVKPEEPFQPVKEATQL [I43D] | 0.045 | 0.0348 | 0.0428 |  | 0.0429 | 0.0476 |  | 0.0427 |  | 0.0437 | 0.0521 | 0.038 | 0.0371 |  | 0.0458 | 0.0342 |  |  | 0.0384
5 | MGESLFKGPRDYNPISSSICHLTNESDGHTTSLYGIGFGPAIITNKHLFRRNNGTLVVQSLHGVFKVKDTTTLQQHLVDGRDMIIIRMPKDFPPFPQKLKFREPQREERICLVTTNFQTKSMSSMVSDTSCTFPSGDGIFWKHWIQTKDGQCGSPLVSTRDGFIVGIHSASNFTNTNNYFTSVPKNFMELLTNQEAQQWVSGWRLNADSVLWGGHKVFMVKPEEPFQPVKEATQL [F41A] | 0.0693 | 0.0551 | 0.0854 | 0.0585 |  |  |  |  | 0.0375 | 0.0543 | 0.0586 |  | 0.0693 | 0.0844 |  | 0.04 |  | 0.0604 | 0.0565
6 | MGESLFKGPRDYNPISSSICHLTNESDGHTTSLYGIGFGPPIITNKHLFRRNNGTLVVQSLHGVFKVKDTTTLQQHLVDGRDMIIIRMPKDFPPFPQKLKFREPQREERICLVTTNFQTKSMSSMVSDTSCTFPSGDGIFWKHWIQTKDGQCGSPLVSTRDGFIVGIHSASNFTNTNNYFTSVPKNFMELLTNQEAQQWVSGWRLNADSVLWGGHKVFMVKPEEPFQPVKEATQL [F41P] | 0.0686 | 0.0551 | 0.0519 | 0.0493 | 0.061 | 0.0484 | 0.0461 | 0.058 | 0.0739 | 0.0502 | 0.0487 | 0.0526 | 0.0484 | 0.0525 |  | 0.0482 | 0.0502 | 0.0744 | 0.0508
7 | MGESLFKGPRDYNPISSSICHLTNESDGHTTSLYGIGFGPQIITNKHLFRRNNGTLVVQSLHGVFKVKDTTTLQQHLVDGRDMIIIRMPKDFPPFPQKLKFREPQREERICLVTTNFQTKSMSSMVSDTSCTFPSGDGIFWKHWIQTKDGQCGSPLVSTRDGFIVGIHSASNFTNTNNYFTSVPKNFMELLTNQEAQQWVSGWRLNADSVLWGGHKVFMVKPEEPFQPVKEATQL [F41Q] | 0.0492 | 0.0634 | 0.0473 | 0.0606 | 0.0639 |  | 0.071 | 0.0693 | 0.0535 | 0.0509 | 0.0411 |  | 0.0582 | 0.0721 |  | 0.0308 |  |  | 0.0502
8 | MGESLFKGPRDYNPISSSICHLTNESDGHTTSLYGIGFGPFIITNKHLYRRNNGTLVVQSLHGVFKVKDTTTLQQHLVDGRDMIIIRMPKDFPPFPQKLKFREPQREERICLVTTNFQTKSMSSMVSDTSCTFPSGDGIFWKHWIQTKDGQCGSPLVSTRDGFIVGIHSASNFTNTNNYFTSVPKNFMELLTNQEAQQWVSGWRLNADSVLWGGHKVFMVKPEEPFQPVKEATQL [F49Y] | 0.0787 | 0.0615 | 0.0297 |  | 0.0612 | 0.0405 | 0.0697 |  | 0.0531 | 0.06 | 0.0642 | 0.0566 | 0.0498 | 0.0485 | 0.0496 |  |  |  | 0.0977
9 | MGESLFKGPRDYNPISSSICHLTNESDGHTTSLYGIGFGPFIITNKHLQRRNNGTLVVQSLHGVFKVKDTTTLQQHLVDGRDMIIIRMPKDFPPFPQKLKFREPQREERICLVTTNFQTKSMSSMVSDTSCTFPSGDGIFWKHWIQTKDGQCGSPLVSTRDGFIVGIHSASNFTNTNNYFTSVPKNFMELLTNQEAQQWVSGWRLNADSVLWGGHKVFMVKPEEPFQPVKEATQL [F49Q] | 0.0539 | 0.0572 | 0.0858 |  | 0.0387 | 0.0582 | 0.057 | 0.0475 |  | 0.0502 | 0.059 | 0.0632 | 0.0537 | 0.0679 | 0.0617 |  | 0.0416 | 0.033 | 0.0557
